From the BET-seq Pho4 binding data (Le et al. 2018)
The other results are listed elsewhere or left out. Values were computed here from the reads of four pooled replicates and scatter widely.

target: T1, Pho4 (S. cerevisiae) (UniProt P07270); assay: relative binding free energy (BET-seq); higher = weaker binding; conditions: reference: library average
T1 sequence: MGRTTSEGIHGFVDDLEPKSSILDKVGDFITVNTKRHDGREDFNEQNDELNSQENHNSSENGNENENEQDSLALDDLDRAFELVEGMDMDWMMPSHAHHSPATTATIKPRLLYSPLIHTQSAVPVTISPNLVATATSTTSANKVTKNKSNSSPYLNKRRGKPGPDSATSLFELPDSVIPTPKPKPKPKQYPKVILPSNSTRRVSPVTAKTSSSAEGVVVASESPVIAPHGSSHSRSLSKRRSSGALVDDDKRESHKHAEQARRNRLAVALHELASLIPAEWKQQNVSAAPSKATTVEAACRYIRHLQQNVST

Row | Sequence | relative binding free energy [kcal/mol]
1 | GTGTTCACGTGAACTT | 0.38
2 | TTGCTCACGTGTTGTC | 0.22
3 | ATCTGCACGTGTGGAG | 0.08
4 | AGGGACACGTGAAGGG | 0.24
5 | ATTGGCACGTGGCGGC | -0.26
6 | TTCTACACGTGGGTGT | -0.03
7 | GTATGCACGTGTTATT | 0.07
8 | ATGAGCACGTGGAAGA | 0.09
9 | AGGCTCACGTGATTTT | 0.25
10 | ATTTGCACGTGGATTA | -0.03
11 | CATTGCACGTGATAGG | 0.08
12 | CGGAACACGTGTGGTT | 0.18
13 | GATATCACGTGGGAAG | 0.04
14 | GAGTGCACGTGTCGAG | 0.05
15 | GTGGCCACGTGCAGGT | -0.06
16 | CAGTGCACGTGTAGGG | -0.08
17 | TTGTGCACGTGTGGTA | 0.03
18 | GAAAACACGTGGGGAG | -0.01
19 | TGTTACACGTGGGCAA | 0
20 | GTGGTCACGTGCAGTC | 0.21
21 | GTTTACACGTGGGGAT | 0.03
22 | AGCGTCACGTGGGGTA | -0.19
23 | CTTTGCACGTGTGGTG | 0.08
24 | TATTGCACGTGTGCGG | -0.19
25 | AGTTCCACGTGTTAGT | 0.08

Row | Sequence | relative binding free energy [kcal/mol]
26 | AGGTACACGTGGAGGG | 0.03
27 | GTGGGCACGTGTAGTT | 0.01
28 | GGGATCACGTGAGAGT | 0.4
29 | TTAGGCACGTGGGCCT | -0.15
30 | ATGGTCACGTGCCGTT | 0.05
31 | GGTATCACGTGTGAGC | 0.36
32 | CATGGCACGTGACTGG | 0.13
33 | TGCCGCACGTGGGGTT | -0.09
34 | CATTTCACGTGCTGGT | 0.32
35 | GTCCACACGTGGTGGT | 0.04
36 | ATGAGCACGTGGATGG | -0.06
37 | CGAGTCACGTGTTTTA | 0.2
38 | GTAGGCACGTGTTGCC | 0.13
39 | TGTTACACGTGGATCT | 0.15
40 | GGTCTCACGTGGGTGG | 0.03
41 | ATAGACACGTGGTATG | -0.09
42 | TTTCGCACGTGGGGCG | -0.15
43 | TTATACACGTGAAGTA | 0.35
44 | TGCGGCACGTGTGGGT | -0.02
45 | GGGATCACGTGCAGGA | 0.19
46 | TCGGTCACGTGTATTG | 0.08
47 | GTGGTCACGTGTGTCC | 0.15
48 | TTGGGCACGTGAATGA | 0.08
49 | TTTGCCACGTGTTTAC | 0.07
50 | GGGAGCACGTGTAAGT | -0.08

Row | Sequence | relative binding free energy [kcal/mol]
51 | GGGGGCACGTGCCGGA | -0.17
52 | TAATGCACGTGAGGAG | 0.12
53 | GTTGACACGTGTGCTA | 0.06
54 | GGAGTCACGTGGGGGA | 0.03
55 | GGTTGCACGTGGACCG | -0.02
56 | TGAGTCACGTGGGGCC | 0.05
57 | AGGCGCACGTGGGAGG | -0.15
58 | TGTTGCACGTGGGAGC | -0.16
59 | GGTCCCACGTGGTGGT | 0.12
60 | ATATGCACGTGTGTAG | -0.06
61 | CCTGTCACGTGGTGTG | 0.1
62 | TGTAACACGTGATATA | 0.13
63 | AGGGTCACGTGAATCT | 0.31
64 | GTTTACACGTGTCAGT | 0.2
65 | TTGGGCACGTGTCGAT | 0.05
66 | TTTGGCACGTGTTCTG | 0.01
67 | GGGATCACGTGGAGGC | 0.15
68 | GAGGGCACGTGTCGAT | -0.07
69 | GTTGGCACGTGTTGTA | -0.11
70 | CTTGCCACGTGTGGGT | -0.1
71 | ATATGCACGTGTGGAA | -0.02
72 | TCGGGCACGTGAGTAT | 0.07
73 | GAGGACACGTGTTGGT | 0.19
74 | GGCGGCACGTGGTTGT | -0.16
75 | AGAAGCACGTGTTCGG | -0.07

Row | Sequence | relative binding free energy [kcal/mol]
76 | GATGGCACGTGTAGCG | 0.14
77 | TAGATCACGTGCTGGT | 0.09
78 | ATGTACACGTGGAGTA | 0.06
79 | TGTAGCACGTGTTGGT | 0.03
80 | AGGGCCACGTGAGGGA | 0.14
81 | ATATGCACGTGCTGTA | -0.15
82 | GTGGTCACGTGTTGGT | 0.18
83 | GTTCACACGTGTTGTT | 0.16
84 | GTTCGCACGTGGTCGT | -0.09
85 | TCGGACACGTGTGAGG | 0.1
86 | GTGGGCACGTGCGCAG | -0.31
87 | TAGTTCACGTGGGCCT | 0.07
88 | GTAATCACGTGATTGG | 0.3
89 | TATAGCACGTGACTGG | -0.06
90 | TTGTACACGTGTATTA | 0.04
91 | TTTTACACGTGATTTT | 0.31
92 | GGAGACACGTGAGTTA | 0.39
93 | TCTTGCACGTGCAGGT | 0.07
94 | AATCTCACGTGTGGAG | 0.42
95 | CGTGGCACGTGTAGTG | -0.21
96 | ACTTGCACGTGTGTAT | 0
97 | GGGGACACGTGGGCTG | -0.14
98 | TGCGGCACGTGAGGTG | 0.03
99 | ATCGGCACGTGGTTTA | -0.27
100 | CTGGACACGTGTGGTT | -0.02

Row | Sequence | relative binding free energy [kcal/mol]
101 | TGAATCACGTGTTCGT | 0.13
102 | GTCAACACGTGGAGGG | 0.07
103 | TAGTACACGTGGTAGT | -0.01
104 | GTGTCCACGTGGGGGA | 0
105 | GCTTGCACGTGAGGTT | 0.1
106 | GGAGCCACGTGTGTTG | 0.1
107 | GGTGTCACGTGCGCTG | -0.09
108 | GTGTGCACGTGTACTT | 0.02
109 | ATAGTCACGTGCGTGA | 0
110 | GTGGGCACGTGCGCGT | -0.25
111 | GTGTACACGTGCGGGC | 0.16
112 | GGGCGCACGTGTGTTA | 0.02
113 | TTAACCACGTGAGGTT | 0.29
114 | TGTTTCACGTGCTCTT | 0.25
115 | TGTGGCACGTGCTAGC | -0.22
116 | GAGGACACGTGTGGCG | 0.08
117 | AAGTTCACGTGTTTCT | 0.27
118 | TATCGCACGTGTGAGG | 0.14
119 | CGGTGCACGTGAGGAG | 0.14
120 | TTGAGCACGTGGTATC | -0.19
121 | ATTGACACGTGAGGGC | 0.14
122 | TAGGTCACGTGGTGTG | 0.09
123 | ATGAACACGTGGGGTT | -0.19
124 | AAAATCACGTGAGGGT | 0.16
125 | GTGCACACGTGGTGGA | 0.05

Row | Sequence | relative binding free energy [kcal/mol]
126 | ATATTCACGTGCAGGG | 0.31
127 | ATGGTCACGTGTTGAG | 0.24
128 | GTCAACACGTGTTAGT | 0.01
129 | ACATTCACGTGGTTAT | 0.22
130 | TTAAGCACGTGAGAAG | 0.21
131 | GGTTGCACGTGGAGAA | 0.14
132 | AGTAGCACGTGGGTGC | -0.35
133 | CGGCGCACGTGGCTGG | -0.19
134 | CAATGCACGTGCGGTG | 0
135 | CGGGTCACGTGAAGTC | 0.39
136 | AGGAGCACGTGTAGTC | 0.02
137 | GTAGGCACGTGGCATG | -0.17
138 | GTGTTCACGTGGGAAT | 0.17
139 | TGGTTCACGTGGCGAG | 0.15
140 | GGAGACACGTGTTGAG | 0.17
141 | GAGATCACGTGGAGAT | 0.37
142 | TTAGCCACGTGAGGTG | 0.23
143 | TGGGTCACGTGGGGCT | -0.06
144 | ACTTTCACGTGGTTTA | 0.18
145 | GATAGCACGTGAGTTA | 0.14
146 | CTGGGCACGTGGTAGA | -0.25
